# From PubChem BioAssay AID504832 (National Center for Advancing Translational Sciences (NCATS), 2011)
# The campaign covered roughly 310,000 compounds. About 18,000 (5.8%) were called active. The shares of active, inactive and inconclusive entries below differ from those in the screen. The call rests on the fitted dose curve; in most records, active means well fitted inhibition curve with a large enough effect; inconclusive means small, poorly fitted or top-dose-only effect, or another doubt; inactive means no such curve, though single readings can be large or run the other way. Potencies of inconclusive entries are left out as doubtful fits.
# Test: Primary qHTS for delayed death inhibitors of the malarial parasite plastid, 48 hour incubation
# Conditions: P. falciparum luciferase growth in erythrocytes; series mostly up to 28.7 µM; activity change, negative = inhibition: at the top concentration
# In short: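 Growth was read as firefly luciferase luminescence after a 48 h, 37 C, 5% CO2 exposure of compounds to reporter-bearing P. falciparum cultures (0.1% parasitemia, 2% hematocrit final) in Albumax-supplemented RPMI 1640.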
# On the % scale 0 is the no-effect control and ±100 the full control effect; potency means the concentration at half of the fitted maximal effect; tags describe the fitted curve by direction and shape.
Compound,Potency,"activity change, negative = inhibition"
CCN(CC)S(=O)(=O)c1ccc2c(c1)N(CC(=O)N1CCN(c3ccc(F)cc3)CC1)C(=O)CO2,"inconclusive [inhibitor, single point]",–
CCCOc1ccc(-c2nn(-c3ccccc3)cc2/C=C2\SC(N)=NC2=O)cc1,"inconclusive [inhibitor, single point]",–
Cc1ccc(S(=O)(=O)NCc2ccc(C(=O)NC3CCC(O)CC3)cc2)cc1C (stereo not given),"inconclusive [inhibitor, single point]",–
Cc1ccc(Nc2ncccc2C(=O)O)cc1C,inactive,–
COC(=O)C1=C(c2ccccc2OCc2ccccc2)C[C@@H]2CC[C@H]1N2C(=O)NCCCOC(C)C,"inconclusive [inhibitor, partial curve]",–
CCN(CC)S(=O)(=O)c1ccc(-c2nnc(SCC(=O)Nc3ccc(OC)cc3)o2)cc1,"inconclusive [inhibitor, single point]",–
CC(=O)N1CC(C)Sc2ccc(S(=O)(=O)NCc3ccc(F)cc3)cc21 (stereo not given),–,inactive: -8.2%
NC(=O)c1ccc(C(F)(F)F)n(Cc2ccc(F)c(F)c2)c1=O,–,inactive: -3.44%
COC(=O)C/C=N/N=C1/NC(=O)/C(=C/C(=O)O)S1,"inconclusive [inhibitor, single point]",–
COCC1CCN(Cc2c(C(=O)N3CCc4ccccc4C3)nc3ccc(Cl)cn23)C1 (stereo not given),"inconclusive [inhibitor, partial curve]",–
CCc1ccccc1NC(=S)N(Cc1ccc(C(=O)O)cc1)Cc1ccc(OC)c(OC)c1,"inconclusive [inhibitor, single point]",–
CC(=O)/C=C\c1ccccc1OC(=O)c1cc2ccccc2oc1=O,–,inactive: -6.72%
CCO[C@H]1OC(C(N)=O)=C[C@@H](c2ccccc2)[C@@H]1CCCO,"inconclusive [inhibitor, full curve, poor fit]",–
CCOC(=O)N/N=C/c1cn(Cc2ccccc2Cl)c2ccccc12,"inconclusive [inhibitor, single point]",–
O=C(Nc1cccc(-c2cccc(F)c2)c1)C1CCN(C2CCC2)CC1,"inconclusive [inhibitor, single point]",–
COc1cc(-c2ccc(Nc3ccccc3C(=O)O)c(OC)c2)ccc1Nc1ccccc1C(=O)O,"inconclusive [inhibitor, partial curve, poor fit]",–
O=C(/C=C\c1ccccc1[N+](=O)[O-])Nc1ccccc1,–,inactive: 101%
COc1cccc(NC(=O)CSc2nc(=O)n(CCN(C)C)c3c2CCCC3)c1,"inconclusive [inhibitor, single point]",–
COc1cc(OC)c(C(=O)OC(C)C(=O)Nc2cccc(C(F)(F)F)c2)cc1OC (stereo not given),"inconclusive [inhibitor, single point]",–
COC(=O)C1=C(C)N(Cc2ccccc2)C(=NCCc2cccnc2)N[C@H]1c1ccccc1,"inconclusive [inhibitor, single point]",–

Compound,Potency,"activity change, negative = inhibition"
CCCOc1ccc(NC(=O)CC2C(=O)N(C)C(=S)N2Cc2ccc3c(c2)OCO3)cc1 (stereo not given),"inconclusive [inhibitor, single point]",–
CCC(Oc1ccc(C)cc1)C(=O)Nc1ccc(S(=O)(=O)Nc2cc(C)on2)cc1 (stereo not given),–,inactive: 7.77%
CCC(=O)N(CCC(c1ccco1)C(C)C)Cc1ccccc1 (stereo not given),"inconclusive [inhibitor, partial curve, poor fit]",–
CCOC(=O)c1cc(-c2ccccc2)n(CC(=O)Nc2cc(OC)cc(OC)c2)c1C,"inconclusive [inhibitor, single point]",–
N/C(Cc1cccc2ccccc12)=N\OC(=O)c1ccc2c(c1)OCO2,"inconclusive [inhibitor, full curve]",–
CNc1ccc(Br)cc(C(=O)/C=C/c2ccc(Cl)cc2Cl)c1=O,"inconclusive [inhibitor, single point]",–
CC(C)C(=O)Nc1nnc(COc2ccc(Cl)cc2)s1,–,inactive: 13.5%
C=CCN=c1scc(-c2ccc3c(c2)NC(=O)CO3)n1/N=C(\C)c1ccccn1,"inconclusive [inhibitor, partial curve]",–
COc1cccc(/C=N/n2c(N)c(S(=O)(=O)c3cccs3)c3nc4ccccc4nc32)c1,"inconclusive [inhibitor, full curve, poor fit]",–
CC1(OC(=O)C2CCCC2)C(=O)C=C2C=C(c3ccsc3)N(CCCCO)C=C2C1=O (stereo not given),"inconclusive [inhibitor, single point]",–
Cc1[nH]c2ccc(C(=O)N3CCN(c4ccc(F)cc4)CC3)cc2c1C,"inconclusive [inhibitor, partial curve, poor fit]",–
NC(=O)CC(NC(=O)Cc1ccc(Br)cc1)c1ccc(N2CCc3ccccc3C2)c([N+](=O)[O-])c1 (stereo not given),"inconclusive [inhibitor, single point]",–
COCCn1c(SCC(=O)Nc2cccnc2Cl)nc2cc(Cl)ccc2c1=O,"inconclusive [inhibitor, single point]",–
O=C(CCNC(=O)C1CCN(S(=O)(=O)c2ccccc2)CC1)NCc1ccncc1,–,inactive: 6.44%
CC1CCN(C(=O)C2CCN(S(=O)(=O)c3cccc4cccnc34)CC2)CC1,–,inactive: -18.7%
O=C(Nc1ccc(C(=O)N2CCCCC2)cc1)Nc1cccc(Cl)c1,"inconclusive [inhibitor, full curve, poor fit]",–
COC(=O)c1cc(C)[nH]c2c(C)cc3nc4ccccc4c3c12,"inconclusive [inhibitor, single point]",–
O=C(CSc1nc(Cc2ccccc2)nc2ccccc12)Nc1ccc2c(c1)OCCO2,"inconclusive [inhibitor, full curve, poor fit]",–
CCCN(Cc1cc2cc(OC)ccc2[nH]c1=O)C(=O)c1ccncc1,"inconclusive [inhibitor, full curve, poor fit]",–
Cn1c(=O)oc2cc(S(=O)(=O)N3CCC(C(=O)N4CCN(c5ccc(F)cc5)CC4)CC3)ccc21,"inconclusive [inhibitor, partial curve, poor fit]",–
